EP4814015A1 (Ewha University-Industry Collaboration Foundation, dated 2026)

T1: recombinant CD300c protein (Sino Biological), human CD300c extracellular domain Met1-Arg183 (human, UniProt Q08708 21-183)
T1 construct: Bought protein, expressed in HEK293 cells; also called CD300c antigen
T1 sequence: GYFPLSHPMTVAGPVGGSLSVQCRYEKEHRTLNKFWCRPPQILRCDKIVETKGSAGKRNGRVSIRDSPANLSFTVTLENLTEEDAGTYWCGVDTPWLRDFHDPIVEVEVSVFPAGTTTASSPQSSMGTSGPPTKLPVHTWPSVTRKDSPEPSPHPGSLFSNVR

T2: recombinant CD300c protein (MyBioSource), extracellular domain (His22-His188) of mouse CD300c (mouse, UniProt A2A7V7 22-188)
T2 construct: Bought protein; also called mouse CD300c protein
T2 sequence: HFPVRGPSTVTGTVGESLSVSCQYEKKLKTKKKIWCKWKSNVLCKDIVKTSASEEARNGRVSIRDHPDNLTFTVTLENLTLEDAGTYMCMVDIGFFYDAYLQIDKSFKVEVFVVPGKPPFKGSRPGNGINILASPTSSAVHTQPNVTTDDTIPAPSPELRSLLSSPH


Experiments:
[1] = target: T1, recombinant CD300c protein (Sino …); test: ELISA, CD300c antigen coated at 1 µg/ml, scFv-Fc 0 to 1 µg/ml, anti-human IgG-HRP
[2] = target: T2, recombinant CD300c protein …; test: ELISA on coated mouse CD300c, order of binding strength

| Binder | EC50 [1] [µg/mL] | binding result [2] |
| --- | --- | --- |
| JEWR-314 anti-CD300c scFv-Fc antibody (scFv, domain: Fc; Tested as scFv-Fc (human IgG1)) scFv: ELVMTQSPSSLSASVRDRVTITCQASHDISKYLNWYQQKSGKAPKLLIYDASNLETGVPSRFSGSGSGTDFTLTISSLQPEDFATYYCQQSYSTPLTFGGGTKVDIKGGSSRSSSSGGGGSGGGGQVQLQESGGGLVQPGGSLRLSCAASGFNFRNYAMSWVRQTPGKGLEWVSAINGRGDTTYYADSVKDRFTISRDNSKNSLYLQMNSLRAEDTAVYYCAAGAYSSSFGEEGQGTLVIVSS[human IgG1 Fc not given here] | 0.031 | – |
| JEWR-22 anti-CD300c scFv-Fc antibody (scFv, domain: Fc) scFv: ELALTQSPSSLSASVGDRVTITCQASHDISKYLNWYQQKSGKAPKLLIYDASNLETGVPSRFSGSGSGTDFTLTISSLQPEDFATYYCQQSYSTPLTFGGGTKLEIKGGSSRSSSSGGGGSGGGGQVQLQESGPGLVKPSQTLSLTCTVSGGSISSGSYYWSWIRQPAGKGLEWIGRIYSSGSTKYNPSLKSRVTISKDTSKNQFSLKLSSVTAADTAVYYCASSVAGQNVDYWGQGTLVTVSS[human IgG1 Fc not given here] | 0.0602 | – |
| JEWR-235 anti-CD300c scFv-Fc antibody (scFv, domain: Fc; Tested as scFv-Fc (human IgG1)) scFv: ELVLTQPPSTSATPGQTVTISCSGSHSNIGTNTVNWYQQLPGAAPKLLIYSDSFRPTGVPGRFSGSKSGTSASLVISGLRSEDEADYYCAAWDDSLNGPVFGGGTQLTVLGGGSSRSSSSGGGGSGGGGEVQLVQSGAEVKKPGASVKVSCKASGYTFTSYGISWVRQAPGQGLEWMGWISVYNGNTNSAQKLQGRVTMTTDTSTSTAYMELRSLRSDDTAVYYCAREDSSSFDYWGQGTLVTVSS[human IgG1 Fc not given here] | 0.18 | – |
| JEWR-332 anti-CD300c scFv-Fc antibody (scFv, domain: Fc; Tested as scFv-Fc (human IgG1)) scFv: ELTLTQSPSSLSASVGDRVTITCQASHDISKYLNWYQQKSGKAPKLLIYDASNLETGVPSRFSGSGSGTDFTLTISSLQPEDFAIYYCQQSYSTPLTFGGGTKLEIKGGSSRSSSSGGGGSGGGGQVQLVQSGGGVVQPGRSLRLSCAASGFTFSSYAMTWVRQAPGKGLEWVSAISGSGGSTYYADSVKGRFTISRDNAKNTLYLQMNSLRAEDTAVYYCARGPYYFDYWGQGTLVTVSS[human IgG1 Fc not given here] | 0.0146 | – |
| JEWR-195 anti-CD300c scFv-Fc antibody (scFv, domain: Fc; Tested as scFv-Fc (human IgG1)) scFv: ELQMTQSPSSLSASVGDRVTITCQASHDISKYLNWYQQKSGKAPKLLIYDASNLETGVPSRFSGSGSGTDFTLTISSLQPEDFATYYCQQSYSTPLTFGGGTKVTVLGGGSSRSSSSGGGGSGGGGQVQLQESGGGLVQPGGSLRLSCAASGFNFRNYAMSWVRQTPGKGLEWVSAINGRGDTTYYADSVKGRFTISRDNAKNSLYLQMNSLRAEDTAVYYCASGAYYYNYWGQGTLVTVSS[human IgG1 Fc not given here] | 0.0075 | – |
| JEWR-139 anti-CD300c scFv-Fc antibody (scFv, domain: Fc; Tested as scFv-Fc (human IgG1)) scFv: ELVMTQSPSSLSASVGDRVTITCQASHDISKYLNWYQQKSGKAPKLLIYDASNLETGVPSRFSGSGSATDFTLTISSLQPEDFATYYCQQSYSTPLTFGGGTRLEIKGGSSRSSSSGGGGSGGGGQITLKESGGGLVQPGRSLRLSCAAAGFTFGGYAMHWVRQAPGKGLEWVSGISWNGGDIAYADSVKGRFTISRDNAKNSLYLQMNSLGAEDTALYYCAKSSWWKGDAFDIWGQGTMVTVSS[human IgG1 Fc not given here] | 0.0671 | – |

Continued, values first:

| EC50 [1] [µg/mL] | binding result [2] | Binder |
| --- | --- | --- |
| – | binds | JEWR-M10 anti-mouse CD300c scFv-Fc antibody (scFv, domain: Fc) scFv: ELALTQPPSVSGSPGQSITLSCTGTSSDIGDYNYVSWYQQHPGKAPKLIIYEVNNRPSGVSIRFSGSKSGNTASLTISGLQAEDEADYYCTSYTPRSIVFGGGTQLTVLGGGSSRSSSSGGGGSGGGGEVQLVQSGGGVVRPGGSLRLSCAASGFTFDDYGMSWVRQAPGKGLEWVSGINWNGGSTIYADSVKGRFIISRDNAKNSLYLQMNSLRAEDTALYYCVRGPDLDYWGQGTLLIVSS[human IgG1 Fc not given here] |
| 0.0295 | – | JEWR-375 anti-CD300c scFv-Fc antibody (scFv, domain: Fc; Tested as scFv-Fc (human IgG1)) scFv: ELQMTQSPSSLSASVGDRVTITCQASHDISKYLNWYQQKSGKAPKLLIYDASNLETGVPSRFSGSGSGTDFTLTISSLQPEDFATYYCQQSYSTPLTFGGGTKVDIKGGSSRSSSSGGGGSGGGGQVQLQQWGGGLVKPGGSLRLSCAASGFNFRNYAMSWVRQTPGKGLEWVSAINGRGDTTYYADSVKGRFTISRDNSKDTLYLQMNSLRAEDTAVYYCARGPYYFDYGGQGTLVTVSS[human IgG1 Fc not given here] |
